Data from patent US20210371526A1 (AMPSOURCE BIOPHARMA SHANGHAI, published 2021).

Key:
[1] = target: T1, Biotin-labeled FcRn proteins (ACRO Biosystem, Cat. No. FCM-H8286) (UniProt P55899 part only; P61769 part only); assay: ELISA at pH 7.0, antibody coated, biotin-labeled FcRn titrated
[2] = target: T1, Biotin-labeled FcRn proteins (ACRO …); assay: ELISA at pH 6.0, antibody coated, biotin-labeled FcRn titrated

Row | EC50 [1] | EC50 [2] | Binder
1 | 13.4 µg/mL | 1.71 µg/mL | Bispecific antibody AB7K5 (Anti-Her2×CD3, scFv-mFc-scFv, single-chain bivalent) (bispecific antibody) [about 120 residues left out here]GGGGSGGGGSGGGGS[about 100 residues left out here]DKTHTSPPSPAPEAAGGPSVFLFPPKPKDQLMISRTPEVTCVVVDVSHEDPEVKFNWYVDGVEVHNAKTKPREEQYASTYRVVSVLTVLHQDWLNGKEYKCKVSNKALPASIEKTISKAKGQPREPQVYTLPPSRDELTKNQVSLRCHVKGFYPSDIAVEWESNGQPENNYKTTPPVLDSDGSFFLYSTLTVDKSRWQQGNVFSCSVLHEALHNHYTQKSLSLSPGGGGGGGSGGGGSGGGGSSSSSKAPPPSEVQLLESGGGLVQPGGSLKLSCAASGFTFNTYAMNWVRQAPGKGLEWVARIRSKYNNYATYYADSVKDRFTISRDDSKNTAYLQMNNLKTEDTAVYYCVRHGNFGNSYVSWFAYWGQGTLVTVSSGGGGSGGGGSGGGGSELVVTQEPSLTVSPGGTVTLTCRSSTGAVTTSNYANWVQQKPGQAPRGLIGGTNKRAPGTPARFSGSLLGGKAALTLSGVQPEDEAEYYCALWYSNLWVFGGGTKLTVL
2 | 4.84 µg/mL | 0.463 µg/mL | Bispecific antibody AB7K7 (Anti-Her2×CD3, scFv-scFv-Fc, tetravalent homodimer) (bispecific antibody) [about 120 residues left out here]GGGGSGGGGSGGGGS[about 100 residues left out here]GGGGGGSGGGGSGGGGSSSSSKAPPPSEVQLLESGGGLVQPGGSLKLSCAASGFTFNTYAMNWVRQAPGKGLEWVARIRSKYNNYATYYADSVKDRFTISRDDSKNTAYLQMNNLKTEDTAVYYCVRHGNFGNSYVSWFAYWGQGTLVTVSSGGGGSGGGGSGGGGSELVVTQEPSLTVSPGGTVTLTCRSSTGAVTTSNYANWVQQKPGQAPRGLIGGTNKRAPGTPARFSGSLLGGKAALTLSGVQPEDEAEYYCALWYSNLWVFGGGTKLTVLDKTHTCPPCPAPEAAGGPSVFLFPPKPKDQLMISRTPEVTCVVVDVSHEDPEVKFNWYVDGVEVHNAKTKPREEQYASTYRVVSVLTVLHQDWLNGKEYKCKVSNKALPASIEKTISKAKGQPREPQVYTLPPSRDELTKNQVSLTCLVKGFYPSDIAVEWESNGQPENNYKTTPPVLDSDGSFFLYSKLTVDKSRWQQGNVFSCSVLHEALHNHYTQKSLSLSPG
